Experimental data published in PubChem BioAssay (Tox21).
This list was built around the results that the source calls inconclusive (neither active nor inactive); the mix of calls is not that of the screen. A call without a number means that no potency is given here. For some assays here: Potencies of inconclusive entries are doubtful fits and often do not repeat. The source made the active and inactive calls. Unless noted, calls come from the whole dose curve; as a rule, active = well fitted curve in the direction sought with a large enough effect in the repeat runs; inconclusive = weak or mixed curves; inactive = no such curve, though single readings can be large; an effect the other way counts as inactive or inconclusive.

Assays:
[1] = qHTS assay to identify small molecule antagonists of the estrogen related receptor signaling pathway with the pleiotropic PPARgamma coactivator (PGC) from Tox21 10K library (AID 1224841; call rule not given here; note: potency is the fitted concentration of half-maximal effect; actives are mostly falling curves and most rising ones were filed inactive; nearly all actives have a fitted effect of over 50% in size)
How it was run: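 Compound exposure ran 18 hours at 37 C in PGC/ERR cells (2,000/well) that had first rested 6 hours in a 37 C/5% CO2 incubator. Luciferase activity was then detected with One-Glo after a 30-minute room-temperature step.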

[2] = target: Progesterone receptor (Homo sapiens) (UniProt P06401); assay: qHTS assay to identify small molecule agonists of the progesterone receptor (PR) signaling pathway (AID 1346784; calls by dose curve; note: nearly all actives have a fitted effect of over 30% in size); settings: PR-UAS-bla HEK293T, beta-lactamase FRET ratio, 16 h; activation: at 92.4 µM (top of the series) unless noted
How it was run: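 HEK 293T PR-UAS-bla reporter cells, 2% charcoal-stripped FBS; 6 hr settle at 37C/5% CO2, compound (DMSO) 16 hr, LiveBLAzer B/G FRET substrate 2 hr RT, fluorescence intensity read.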

[3] = target: Cytochrome P450 3A4 (Homo sapiens) (UniProt P08684); assay: Cytochrome P450 Family 3 Subfamily A Member 4 (CYP3A4) small molecule antagonists: luciferase reporter qHTS assay (AID 1671201); note: nearly all actives have a fitted effect of over 50% in size; note: potency is the fitted concentration of half-maximal effect
How it was run: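 Luminescent readout (RLU) proportional to CYP3A4 activity, from luciferin generated off a proluciferin substrate. Enzyme–substrate mix plus compound 10 min at room temp, NADPH regeneration 1 h, detection reagent 20 min.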

[4] = target: Nuclear receptor subfamily 1 group I member 3 (Homo sapiens) (UniProt Q14994); assay: qHTS assay to identify small molecule agonists of the constitutive androstane receptor (CAR) signaling pathway (AID 1224839); note: nearly all actives have a fitted effect of over 15% in size; note: potency is the fitted concentration of half-maximal effect;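 for activation: HepG2 cells stably carrying human CAR and a CYP2B6 luciferase reporter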
How it was run: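 Luminescence read-out (ONE-Glo, 30 min, room temperature) from double-stable HepG2-CYP2B6-hCAR cells exposed 24 h to 15-point compound series in presence of 0.75 uM PK11195 final.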

[5] = A CellTox Green Cytotoxicity Assay to monitor cytotoxicity in HEK293 cells - 8 hour (AID 1224884); note: nearly all actives have a fitted effect of over 35% in size; note: potency is the fitted concentration of half-maximal effect
How it was run: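 Each value comes from one timepoint of a single continuous run in which HEK293 cells with CellTox Green were exposed to compound for up to 40 h at 37 C, dye fluorescence rising with cell death.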

[6] = target: Estrogen receptor (Homo sapiens) (UniProt P03372); assay: qHTS assay to identify small molecule antagonists of the estrogen receptor alpha (ER-alpha) signaling pathway (AID 743069; active = well fitted curve in the direction sought with a large enough effect in the signal ratio in the repeat runs, not every such curve was filed as active; inconclusive = weak or mixed curves, or effect the other way; inactive = no such curve, though single readings can be large or run the other way; the % refers to the signal ratio); settings: HEK293 ER-alpha-UAS-bla, beta-lactamase ratio, antagonist mode; activity, negative = inhibition: at 69.4 µM (top of the series) unless noted
How it was run: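 Compound effects are measured against 17beta-estradiol stimulation in HEK293 cells with a UAS-controlled beta-lactamase reporter for ER-alpha. Exposure lasts 18 hr at 37C; LiveBLAzer B/G FRET substrate follows for 2 hr at room temperature.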

[7] = qHTS assay to identify small molecule agonists of the peroxisome proliferator-activated receptor delta (PPARd) signaling pathway - cell viability counter screen (AID 743211); settings: PPARd-bla HEK293H viability, CellTiter-Glo luminescence, 17 h; activity change, negative = cytotoxicity: at 62.6 µM (top of the series); note: nearly all actives have a fitted effect of over 55% in size; note: potency is the fitted concentration of half-maximal effect
How it was run: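 Read-out: CellTiter-Glo luminescence, 30 min RT, measured in the same wells as the beta-lactamase reporter. Cells: GeneBLAzer PPAR delta UAS-bla HEK293H, 3000 cells/well, compound exposure 17 h at 37C.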

[8] = qHTS RealTime-Glo MT Cell Viability Assay in HEK293 cells - 40 hour (AID 1224874); settings: RealTime-Glo luminescence; max response: stronger effect = lower value; note: nearly all actives have a fitted effect of over 50% in size; note: potency is the fitted concentration of half-maximal effect
How it was run: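 qHTS format; HEK293 cells with NanoLuc/prosubstrate reagent, 37 C/5% CO2 for 5 h pre-dosing; compounds 23 nL in DMSO; luminescence at each time point reflects viable cells.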

[9] = qHTS assay to identify small molecule agonists of the TGF-beta/Smad signaling pathway (AID 1346859; active = well fitted activation curve with a large enough effect in the signal ratio in the repeat runs, not every such curve was filed as active; inconclusive = weak or mixed curves; the % refers to the signal ratio)
How it was run: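 Read-out: fluorescence at 460 and 530 nm (405 nm excitation) after a 2 hr room-temperature incubation with beta-lactamase FRET substrate. SBE-bla HEK 293T cells had been treated with test compounds for 5 hr at 37 C.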

[10] = Caspase-3/7 induction in CHO-K1 cells by small molecules, qHTS cell viability counter screen (AID 1346979); note: nearly all actives have a fitted effect of over 35% in size; note: potency is the fitted concentration of half-maximal effect
How it was run: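 CHO-K1 wt, 1,500 cells/well; 5hr pre-incubation 37C/5% CO2; compound pin transfer (DMSO); 16hr exposure; CellTiter-Fluor added, 1hr, fluorescence read.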

[11] = qHTS assay to identify small molecule antagonists of the estrogen related receptor signaling pathway with the pleiotropic PPARgamma coactivator (PGC) from Tox21 10K library - cell viability counter screen (AID 1224840; active = well fitted cell-killing curve with a large enough effect in the repeat runs, not every such curve was filed as active; inconclusive = weak or mixed curves, or effect the other way; inactive = no such curve, though single readings can be large or run the other way; note: nearly all actives have a fitted effect of over 40% in size)
How it was run: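 Compounds in DMSO, alongside positive and negative controls, were pinned onto PGC/ERR cells (2,000 per well). Exposure lasted 17.5 hours at 37 C, followed by a 30-minute CellTiter-Fluor incubation and fluorescence reading.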

[12] = target: Estrogen receptor beta (Homo sapiens) (UniProt Q92731); assay: qHTS assay to identify small molecule agonists of the estrogen receptor beta (ER-beta) signaling pathway (AID 1259377; active = well fitted activation curve with a large enough effect in the signal ratio in the repeat runs, not every such curve was filed as active; inconclusive = weak or mixed curves, or effect the other way; the % refers to the signal ratio; note: potency is the fitted concentration of half-maximal effect); settings: ER-beta-UAS-bla HEK293T, beta-lactamase FRET ratio, 16 h; activation: at 92.4 µM (top of the series) unless noted
How it was run: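 Beta-lactamase reporter readout: fluorescence of LiveBLAzer B/G FRET substrate after 2 h at room temperature, following 16 h compound treatment of ER-beta-UAS-bla HEK293T cells at 37C in 2% charcoal-stripped FBS medium.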

[13] = target: Acetylcholinesterase (Homo sapiens) (UniProt P22303); assay: Acetylcholinesterase (AChE) small molecule antagonists: fluorescence cell-based qHTS assay (AID 1347398; calls by dose curve; note: potency is the fitted concentration of half-maximal effect; nearly all actives have a fitted effect of over 50% in size); settings: Potency: AChE activity
How it was run: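 Fluorimetric cell-based assay: intact SH-SY5Y cells, 30 min compound preincubation at 37 C, acetylthiocholine substrate with thiol probe Thiolite Green, 40 min RT development, fluorescence 490/520 nm.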

[14] = target: Peroxisome proliferator-activated receptor delta (Homo sapiens) (UniProt Q03181); assay: qHTS assay to identify small molecule agonists of the peroxisome proliferator-activated receptor delta (PPARd) signaling pathway (AID 743212; calls by dose curve); settings: HEK293H PPARd-UAS-bla, beta-lactamase FRET ratio, 17 h; activation: at 62.6 µM (top of the series) unless noted
How it was run: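 HEK293H UAS-bla reporter cells, human PPARd system; compounds delivered in DMSO after 5 h plating, then at 37 C. Beta-lactamase FRET read, 2 h RT substrate step.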

[15] = qHTS assay to identify small molecule agonists of H2AX - cell viability counter screen (AID 1224847; calls by dose curve;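 note: wild-type CHO-K1 cells; top concentration of the series differs between compounds; nearly all actives have a fitted effect of over 30% in size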)
How it was run: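 CHO-K1 wt, 1000 cells/well, o/n 37C; cpds 15 conc, 3 h 37C, 0.76% DMSO; CellTiter-Glo, 30 min RT, luminescence.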

[16] = qHTS assay to identify small molecule antagonists of the thyroid receptor (TR) signaling pathway (AID 743065); note: potency is the fitted concentration of half-maximal effect; nearly all actives have a fitted effect of over 55% in size
How it was run: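 Antagonism measured as loss of luciferase signal in GH3 cells stably carrying a TRE-luciferase reporter, co-treated with compound and T3 (1 nM final) for 23.5 h at 37 C. Viability was read in the same well by CellTiter-Fluor.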

[17] = target: Androgen receptor (Homo sapiens) (UniProt P10275); assay: qHTS assay to identify small molecule antagonists of the androgen receptor (AR) signaling pathway (AID 743035; active = well fitted inhibition curve with a large enough effect in the signal ratio in the repeat runs, not every such curve was filed as active; inconclusive = weak or mixed curves, or effect the other way; inactive = no such curve, though single readings can be large or run the other way; the % refers to the signal ratio; note: potency is the fitted concentration of half-maximal effect); settings: HEK293 AR-UAS-bla, R1881-stimulated, beta-lactamase FRET, 16 h; activity change, negative = inhibition: at 58.5 µM (top of the series) unless noted
How it was run: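 Cell line: GeneBLAzer AR-UAS-bla GripTite (HEK293). Stimulus: R1881 added after compound. Exposure: 16 h, 37C, 5% CO2. Readout: LiveBLAzer B/G FRET fluorescence after 2 h at room temperature.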

[18] = Human pregnane X receptor (PXR) small molecule agonists, qHTS cell viability counter screen (AID 1346977)
How it was run: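 Fluorescence read-out (CellTiter-Fluor) of viability in PXR-Luc HepG2 cells, multiplexed with the luciferase agonist read. Compounds in DMSO added after 5hr plating; 24hr total exposure at 37C, 5% CO2.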
Tags give direction and shape of the fitted curve or compound fluorescence and quenching.

UniProt P10275, sequence (P10275 whole entry, looked up): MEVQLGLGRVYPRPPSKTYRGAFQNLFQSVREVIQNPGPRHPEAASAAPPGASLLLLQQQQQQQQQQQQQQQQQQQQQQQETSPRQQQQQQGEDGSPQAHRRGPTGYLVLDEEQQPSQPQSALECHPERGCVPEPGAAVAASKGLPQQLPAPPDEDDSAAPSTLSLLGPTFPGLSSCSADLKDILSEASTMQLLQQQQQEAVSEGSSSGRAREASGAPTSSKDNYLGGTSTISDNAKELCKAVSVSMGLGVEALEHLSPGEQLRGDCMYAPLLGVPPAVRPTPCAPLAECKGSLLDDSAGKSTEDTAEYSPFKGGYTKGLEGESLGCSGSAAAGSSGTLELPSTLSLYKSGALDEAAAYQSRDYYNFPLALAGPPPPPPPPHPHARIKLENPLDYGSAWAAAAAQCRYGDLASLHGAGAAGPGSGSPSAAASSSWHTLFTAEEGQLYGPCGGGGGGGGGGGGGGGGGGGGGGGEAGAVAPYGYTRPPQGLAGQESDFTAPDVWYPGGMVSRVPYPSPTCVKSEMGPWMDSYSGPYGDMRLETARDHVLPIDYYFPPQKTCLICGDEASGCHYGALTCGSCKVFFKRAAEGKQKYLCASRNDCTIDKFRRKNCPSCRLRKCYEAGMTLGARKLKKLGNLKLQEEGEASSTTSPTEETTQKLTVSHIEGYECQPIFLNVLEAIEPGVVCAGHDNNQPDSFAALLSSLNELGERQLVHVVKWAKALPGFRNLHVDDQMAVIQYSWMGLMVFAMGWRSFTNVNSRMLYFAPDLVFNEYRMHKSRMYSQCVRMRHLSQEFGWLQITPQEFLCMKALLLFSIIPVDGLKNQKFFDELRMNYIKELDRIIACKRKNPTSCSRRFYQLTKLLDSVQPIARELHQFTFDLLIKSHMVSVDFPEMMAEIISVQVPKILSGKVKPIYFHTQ
UniProt Q03181, sequence (Q03181 whole entry, looked up): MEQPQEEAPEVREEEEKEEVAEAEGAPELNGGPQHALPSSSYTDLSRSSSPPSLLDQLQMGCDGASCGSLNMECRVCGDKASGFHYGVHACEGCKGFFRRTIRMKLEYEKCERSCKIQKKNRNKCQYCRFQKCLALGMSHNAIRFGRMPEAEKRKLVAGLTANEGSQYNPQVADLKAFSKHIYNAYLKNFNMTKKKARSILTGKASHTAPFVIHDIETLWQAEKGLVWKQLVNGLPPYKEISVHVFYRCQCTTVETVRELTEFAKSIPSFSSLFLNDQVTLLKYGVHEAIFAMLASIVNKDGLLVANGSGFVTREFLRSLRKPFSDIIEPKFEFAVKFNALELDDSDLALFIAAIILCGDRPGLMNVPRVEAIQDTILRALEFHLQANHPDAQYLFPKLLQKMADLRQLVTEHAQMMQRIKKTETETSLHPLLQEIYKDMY
UniProt Q14994, sequence (Q14994 whole entry, looked up): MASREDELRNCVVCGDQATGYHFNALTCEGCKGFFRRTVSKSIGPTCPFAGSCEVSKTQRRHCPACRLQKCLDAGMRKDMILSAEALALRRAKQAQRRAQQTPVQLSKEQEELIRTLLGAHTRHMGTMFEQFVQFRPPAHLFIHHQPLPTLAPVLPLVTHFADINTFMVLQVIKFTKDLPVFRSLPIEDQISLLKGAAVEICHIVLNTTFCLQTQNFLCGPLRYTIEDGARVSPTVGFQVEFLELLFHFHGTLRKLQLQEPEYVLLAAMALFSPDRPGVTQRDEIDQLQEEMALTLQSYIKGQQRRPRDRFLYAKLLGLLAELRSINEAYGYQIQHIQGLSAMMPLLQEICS
UniProt P06401, sequence (P06401 whole entry, looked up): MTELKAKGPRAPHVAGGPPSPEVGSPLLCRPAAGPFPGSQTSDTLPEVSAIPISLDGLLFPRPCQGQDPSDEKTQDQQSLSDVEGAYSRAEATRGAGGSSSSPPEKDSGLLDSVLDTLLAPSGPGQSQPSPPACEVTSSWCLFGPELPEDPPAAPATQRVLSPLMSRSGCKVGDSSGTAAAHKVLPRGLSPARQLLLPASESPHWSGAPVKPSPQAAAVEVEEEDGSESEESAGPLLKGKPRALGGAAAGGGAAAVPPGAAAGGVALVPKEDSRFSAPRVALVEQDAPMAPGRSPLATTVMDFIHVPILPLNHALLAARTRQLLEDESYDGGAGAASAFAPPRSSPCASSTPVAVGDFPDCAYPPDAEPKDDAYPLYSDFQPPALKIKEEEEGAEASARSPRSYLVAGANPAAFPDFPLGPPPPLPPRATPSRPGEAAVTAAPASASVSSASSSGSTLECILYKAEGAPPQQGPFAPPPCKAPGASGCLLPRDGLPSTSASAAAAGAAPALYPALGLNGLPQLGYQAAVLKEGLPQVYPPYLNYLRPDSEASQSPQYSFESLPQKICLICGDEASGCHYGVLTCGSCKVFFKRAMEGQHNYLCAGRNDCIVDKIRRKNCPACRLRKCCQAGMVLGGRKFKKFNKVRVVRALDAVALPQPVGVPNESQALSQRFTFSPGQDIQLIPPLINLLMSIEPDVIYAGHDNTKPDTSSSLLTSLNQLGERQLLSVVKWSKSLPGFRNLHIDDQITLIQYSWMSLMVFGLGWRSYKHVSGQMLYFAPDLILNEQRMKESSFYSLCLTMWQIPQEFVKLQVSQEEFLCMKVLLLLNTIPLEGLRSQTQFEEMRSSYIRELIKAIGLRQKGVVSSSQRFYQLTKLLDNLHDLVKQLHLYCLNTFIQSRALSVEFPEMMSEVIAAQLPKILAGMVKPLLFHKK
UniProt P08684, sequence (P08684 whole entry, looked up): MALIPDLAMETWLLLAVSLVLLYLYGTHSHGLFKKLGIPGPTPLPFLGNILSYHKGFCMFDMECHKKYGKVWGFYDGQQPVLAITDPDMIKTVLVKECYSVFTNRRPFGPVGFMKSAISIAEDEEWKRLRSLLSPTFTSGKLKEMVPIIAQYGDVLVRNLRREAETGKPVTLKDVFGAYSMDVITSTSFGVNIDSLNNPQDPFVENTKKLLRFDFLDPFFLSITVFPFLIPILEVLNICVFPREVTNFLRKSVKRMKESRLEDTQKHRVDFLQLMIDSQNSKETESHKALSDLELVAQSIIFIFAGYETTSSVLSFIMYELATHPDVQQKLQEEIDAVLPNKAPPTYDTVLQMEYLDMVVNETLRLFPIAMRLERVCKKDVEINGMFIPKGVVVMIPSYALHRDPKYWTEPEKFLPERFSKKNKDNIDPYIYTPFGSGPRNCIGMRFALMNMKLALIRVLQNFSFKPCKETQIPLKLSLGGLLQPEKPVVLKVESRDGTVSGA
UniProt P22303, sequence (P22303 whole entry, looked up): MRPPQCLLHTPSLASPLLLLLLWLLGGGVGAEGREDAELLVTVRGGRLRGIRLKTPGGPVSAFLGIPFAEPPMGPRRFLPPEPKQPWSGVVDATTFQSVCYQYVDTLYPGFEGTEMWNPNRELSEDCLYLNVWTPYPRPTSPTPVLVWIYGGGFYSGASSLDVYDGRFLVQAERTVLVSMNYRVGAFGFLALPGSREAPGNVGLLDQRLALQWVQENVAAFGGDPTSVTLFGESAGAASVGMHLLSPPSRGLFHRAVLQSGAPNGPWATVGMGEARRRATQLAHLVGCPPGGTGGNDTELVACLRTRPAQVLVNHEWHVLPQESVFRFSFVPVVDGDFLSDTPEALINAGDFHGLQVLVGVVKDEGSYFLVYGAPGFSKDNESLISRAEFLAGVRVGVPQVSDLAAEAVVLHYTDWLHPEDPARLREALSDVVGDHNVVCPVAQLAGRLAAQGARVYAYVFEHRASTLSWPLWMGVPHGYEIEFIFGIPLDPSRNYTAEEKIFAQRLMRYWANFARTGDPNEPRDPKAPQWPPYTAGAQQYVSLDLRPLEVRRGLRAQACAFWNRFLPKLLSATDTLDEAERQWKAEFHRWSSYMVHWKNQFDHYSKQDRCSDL
UniProt Q92731, sequence (Q92731 whole entry, looked up): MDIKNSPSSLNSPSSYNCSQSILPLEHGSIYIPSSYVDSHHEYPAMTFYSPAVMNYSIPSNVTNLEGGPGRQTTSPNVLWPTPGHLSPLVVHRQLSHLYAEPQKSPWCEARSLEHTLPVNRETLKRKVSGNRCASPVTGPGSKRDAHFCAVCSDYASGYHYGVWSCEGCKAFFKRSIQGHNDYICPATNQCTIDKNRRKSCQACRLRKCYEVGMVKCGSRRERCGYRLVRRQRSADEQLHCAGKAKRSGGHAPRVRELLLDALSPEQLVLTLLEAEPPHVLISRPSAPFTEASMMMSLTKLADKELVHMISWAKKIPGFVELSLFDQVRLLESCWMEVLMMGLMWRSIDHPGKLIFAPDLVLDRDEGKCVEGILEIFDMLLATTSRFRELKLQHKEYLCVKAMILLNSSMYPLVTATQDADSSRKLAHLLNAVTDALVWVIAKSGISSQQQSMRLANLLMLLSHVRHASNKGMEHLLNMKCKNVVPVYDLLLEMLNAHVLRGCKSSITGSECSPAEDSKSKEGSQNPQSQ
UniProt P03372, sequence (P03372 whole entry, looked up): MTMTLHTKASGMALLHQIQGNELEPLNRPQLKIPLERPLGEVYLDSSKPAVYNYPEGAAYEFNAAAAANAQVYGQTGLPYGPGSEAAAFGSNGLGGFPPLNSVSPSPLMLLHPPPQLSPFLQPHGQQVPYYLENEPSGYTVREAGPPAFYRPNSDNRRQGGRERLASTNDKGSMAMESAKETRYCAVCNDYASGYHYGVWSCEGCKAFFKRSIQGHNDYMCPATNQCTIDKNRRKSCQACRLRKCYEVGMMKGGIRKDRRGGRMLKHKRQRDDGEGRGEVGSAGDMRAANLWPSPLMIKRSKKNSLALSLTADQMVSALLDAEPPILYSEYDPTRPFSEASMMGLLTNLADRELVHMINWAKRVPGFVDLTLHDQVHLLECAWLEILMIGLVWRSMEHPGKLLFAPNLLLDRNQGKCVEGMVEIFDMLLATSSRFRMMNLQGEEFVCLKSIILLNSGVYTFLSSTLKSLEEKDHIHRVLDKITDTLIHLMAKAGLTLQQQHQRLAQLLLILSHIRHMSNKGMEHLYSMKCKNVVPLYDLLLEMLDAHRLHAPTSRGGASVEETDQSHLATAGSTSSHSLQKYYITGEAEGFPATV

## CCS(=O)(=O)c1cccnc1S(=O)(=O)NC(=O)Nc1nc(OC)cc(OC)n1
[1]
  Potency: inconclusive: 27.3 µM [falling, single point]
[2]
  Potency: inactive
[3]
  Potency: inconclusive: 79.6 µM [inhibitor, single point]

## BrCC1CO1 (stereo unspecified)
[4]
  Potency: inactive
[5]
  Potency: inactive

## NC(=O)CS(=O)C(c1ccccc1)c1ccccc1 (stereo unspecified)
[6]
  Potency: inactive
[7]
  Potency: inactive
[4]
  Potency: inactive

## CC(C)(COCC1CO1)COCC1CO1 (stereo unspecified)
[1]
  Potency: inconclusive: 0.243 µM [falling, single point]
[8]
  Potency: inconclusive: 61.6 µM [cytotoxic, single point]

## Clc1ccc(Oc2ccccc2)cc1
[5]
  Potency: inactive
[9]
  Potency: inactive

## CC(C)(C)NC[C@H](O)c1ccc(O)cc1Cl
[9]
  Potency: inactive

## O=[N+]([O-])c1cc(Cl)ccc1Cl
[5]
  Potency: inactive
[10]
  Potency: inconclusive: 30.6 µM [rising, partial curve, poor fit]

## Cc1coc2c1CCC(C)C2 (stereo unspecified)
[4]
  Potency: inconclusive: 70.8 µM [activator, partial curve, poor fit]
[3]
  Potency: active: 29.2 µM

## COc1ccc([N+](=O)[O-])cc1O
[11]
  Potency: inactive
[12]
  Potency: inconclusive: 29.8 µM [rising, partial curve, poor fit]
[2]
  Potency: inactive
[10]
  Potency: inactive
[13]
  Potency: inconclusive: 27.5 µM [inhibitor, partial curve, poor fit]

## CCCCC(=O)Cl
[14]
  Potency: inactive
[11]
  Potency: inactive

## COC(=O)c1ccccc1S(=O)(=O)NC(=O)N(C)c1nc(C)nc(OC)n1
[1]
  Potency: inconclusive: 10.5 µM [falling, full curve, poor fit]
[15]
  Potency: inactive
[10]
  Potency: inactive
[3]
  Potency: inactive

## O=S1(=O)OCCO1
[11]
  Potency: inactive

## CC(O)CCl (stereo unspecified)
[15]
  Potency: inactive
[8]
  max response: inactive: 1.35%

## CN(C)C(=O)Nc1cccc(OC(=O)NC(C)(C)C)c1
[16]
  Potency: inconclusive: 68.6 µM [inhibitor, partial curve, poor fit]
[5]
  Potency: inconclusive: 61.6 µM [activator, single point]
[12]
  Potency: inconclusive: 61.1 µM [rising, single point]

## CC(C)c1ccc(O)cc1
[7]
  Potency: inactive

## CNCC(=O)c1ccc(O)c(O)c1
[6]
  activity, negative = inhibition: inconclusive: -14%
[5]
  Potency: inactive
[3]
  Potency: inactive

## Nc1c(Br)cc(Br)c2c1C(=O)c1ccccc1C2=O
[17]
  Potency: inconclusive: 6.52 µM [rising, partial curve, poor fit]
[4]
  activation: inactive: 7.31% [at 19 µM]
[8]
  Potency: inconclusive: 5.81 µM [cytotoxic, full curve]
[18]
  Potency: inconclusive: 4.58 µM [cytotoxic, partial curve]

## CS(=O)(=O)c1ccc(C(=O)C2C(=O)CCCC2=O)c(Cl)c1COCC(F)(F)F
[14]
  Potency: inactive
[13]
  Potency: inconclusive: 31.7 µM [inhibitor, partial curve]
[3]
  Potency: inconclusive: 71 µM [inhibitor, partial curve]

## COc1cc(C[C@@H](C)N)c(OC)cc1Br
[7]
  Potency: active: 62.8 µM
[14]
  activation: inconclusive: 14.2% [at 81.1 µM]
[18]
  Potency: inconclusive: 35.3 µM [cytotoxic, partial curve]

## CCN[C@@H](C)Cc1ccccc1
[17]
  Potency: inactive
[7]
  Potency: inactive

## CCC1(c2ccccc2)C(=O)N(COC)C(=O)N(COC)C1=O
[17]
  Potency: inactive
[4]
  Potency: inconclusive: 21.1 µM [activator, partial curve]

## NCC1(CC(=O)O)CCCCC1
[15]
  Potency: inactive
[2]
  Potency: inactive

## CCC(C)n1c(=O)[nH]c(C)c(Br)c1=O (stereo unspecified)
[11]
  Potency: inactive
[9]
  Potency: inactive
